According to PMC8096781:
No constants are given. Whether binding was seen depends on the method and setting. Binding seen in cells or lysates may run through a third protein. Tags and fused reporters may be left off the sequences shown.

Biological target: T1, Flag-FOXM1C (overexpressed in HeLa cells), Q08050
T1 chain: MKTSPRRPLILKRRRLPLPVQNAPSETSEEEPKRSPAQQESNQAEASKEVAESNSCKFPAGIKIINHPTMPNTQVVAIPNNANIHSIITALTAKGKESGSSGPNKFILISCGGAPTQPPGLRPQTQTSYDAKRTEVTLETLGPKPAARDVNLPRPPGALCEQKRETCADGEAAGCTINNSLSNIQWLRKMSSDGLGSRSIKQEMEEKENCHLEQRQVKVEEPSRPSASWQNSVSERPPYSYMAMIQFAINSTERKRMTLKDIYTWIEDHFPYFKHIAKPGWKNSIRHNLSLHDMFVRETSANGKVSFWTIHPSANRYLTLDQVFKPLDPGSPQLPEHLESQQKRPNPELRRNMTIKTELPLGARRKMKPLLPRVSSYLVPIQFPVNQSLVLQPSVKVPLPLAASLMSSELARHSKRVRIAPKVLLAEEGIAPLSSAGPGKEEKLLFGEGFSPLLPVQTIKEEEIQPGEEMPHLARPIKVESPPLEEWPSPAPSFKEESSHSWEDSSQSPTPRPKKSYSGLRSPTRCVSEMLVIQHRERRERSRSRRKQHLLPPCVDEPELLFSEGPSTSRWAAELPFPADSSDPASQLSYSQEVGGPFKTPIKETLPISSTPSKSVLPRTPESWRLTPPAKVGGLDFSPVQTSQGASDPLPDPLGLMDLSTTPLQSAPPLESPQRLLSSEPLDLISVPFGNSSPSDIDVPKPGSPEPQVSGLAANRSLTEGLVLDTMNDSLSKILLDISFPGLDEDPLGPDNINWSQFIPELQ
Test: co-IP; vector control and Flag-FOXM1A/B/C/D-overexpressing HeLa cells further transfected with HA-p65 or HA-p50 plasmid; anti-Flag or anti-HA antibody; western blot
Conditions: remark: other sources report otherwise

B1: HA-p50, P19838 1-433 (protein)
chain: MAEDDPYLGRPEQMFHLDPSLTHTIFNPEVFQPQMALPTDGPYLQILEQPKQRGFRFRYVCEGPSHGGLPGASSEKNKKSYPQVKICNYVGPAKVIVQLVTNGKNIHLHAHSLVGKHCEDGICTVTAGPKDMVVGFANLGILHVTKKKVFETLEARMTEACIRGYNPGLLVHPDLAYLQAEGGGDRQLGDREKELIRQAALQQTKEMDLSVVRLMFTAFLPDSTGSFTRRLEPVVSDAIYDSKAPNASNLKIVRMDRTAGCVTGGEEIYLLCDKVQKDDIQIRFYEEEENGGVWEGFGDFSPTDVHRQFAIVFKTPKYKDINITKPASVFVQLRRKSDLETSEPKPFLYYPEIKDKEEVQRKRQKLMPNFSDSFGGGSGAGAGGGGMFGSGGGGGGTGSTGPGYSFPHYGFPTYGGITFHPGTTKSNAGMKHG
binding: no binding
